Results from the BET-seq Pho4 binding data (Le et al. 2018).
Some of the results follow. Values were computed here from the reads of four pooled replicates and scatter widely.

Each sequence was assayed against T1, Pho4 (S. cerevisiae) (UniProt P07270) (assay: relative binding free energy (BET-seq); higher = weaker binding). Settings: reference: library average.
T1 sequence: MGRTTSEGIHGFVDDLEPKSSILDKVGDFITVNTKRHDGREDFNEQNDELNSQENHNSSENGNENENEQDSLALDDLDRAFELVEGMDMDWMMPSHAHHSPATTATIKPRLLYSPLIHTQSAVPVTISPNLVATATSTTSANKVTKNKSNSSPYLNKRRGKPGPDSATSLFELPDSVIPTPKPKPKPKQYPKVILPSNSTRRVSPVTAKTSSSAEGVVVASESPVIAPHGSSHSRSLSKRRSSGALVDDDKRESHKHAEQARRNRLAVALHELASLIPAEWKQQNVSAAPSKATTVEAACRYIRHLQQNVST

Row | Sequence | relative binding free energy
1 | AAACGCACGTGTGTGT | -0.14 kcal/mol
2 | TAGAACACGTGTGGTG | 0.1 kcal/mol
3 | TATGGCACGTGTGGGT | -0.01 kcal/mol
4 | GCAATCACGTGGTAGG | 0.07 kcal/mol
5 | GTCTGCACGTGTTGAG | 0.19 kcal/mol
6 | GTGAGCACGTGTATAT | -0.03 kcal/mol
7 | ATAGTCACGTGGTATC | 0.04 kcal/mol
8 | GGAATCACGTGTAGGA | 0.15 kcal/mol
9 | GGCATCACGTGGGTGT | 0.1 kcal/mol
10 | GATTGCACGTGATTAA | 0.25 kcal/mol
11 | AATGACACGTGTTGGT | 0.07 kcal/mol
12 | TTTTCCACGTGTCTTT | 0.14 kcal/mol
13 | TTGGGCACGTGCATTT | -0.18 kcal/mol
14 | AGTTGCACGTGCCGGT | -0.21 kcal/mol
15 | AGTCTCACGTGGGTAT | 0.15 kcal/mol
16 | GCATTCACGTGATGTG | 0.23 kcal/mol
17 | GTAAACACGTGTTTAT | -0.09 kcal/mol
18 | GCAAACACGTGTGTGT | -0.07 kcal/mol
19 | CCTTGCACGTGGCGGG | -0.1 kcal/mol
20 | TAGTCCACGTGGCGTG | -0.08 kcal/mol
21 | TGCGGCACGTGCAGGT | -0.23 kcal/mol
22 | CGTTTCACGTGCAGGA | 0.33 kcal/mol
23 | AGCGGCACGTGGGGCT | -0.2 kcal/mol
24 | TTGCCCACGTGTAGGG | -0.09 kcal/mol
25 | GGCAACACGTGTGTTG | 0.09 kcal/mol

Row | Sequence | relative binding free energy
26 | AGGGGCACGTGAAATT | 0.18 kcal/mol
27 | TTGGACACGTGACGTG | 0.11 kcal/mol
28 | ATGTACACGTGTGATC | 0.25 kcal/mol
29 | TGTGGCACGTGAGCGC | 0.03 kcal/mol
30 | GTTTTCACGTGGGTCG | 0.22 kcal/mol
31 | TTGGTCACGTGGAAGA | 0.09 kcal/mol
32 | GGTAGCACGTGGGGGC | -0.14 kcal/mol
33 | CGTTGCACGTGTTATA | 0.05 kcal/mol
34 | GTTGGCACGTGACGGA | 0.18 kcal/mol
35 | TTTCGCACGTGTCTTG | 0.05 kcal/mol
36 | ACGTTCACGTGTGAAG | 0.34 kcal/mol
37 | ATTGGCACGTGGGGCC | -0.17 kcal/mol
38 | TTGGACACGTGTTGCT | -0.03 kcal/mol
39 | GATTGCACGTGTTAAA | 0.03 kcal/mol
40 | GGGAGCACGTGGTTTG | -0.01 kcal/mol
41 | TTTCTCACGTGTAGCG | 0.39 kcal/mol
42 | CGTTGCACGTGTAAGT | 0.04 kcal/mol
43 | ATGAGCACGTGGTCAG | -0.2 kcal/mol
44 | AGCGTCACGTGGTTAT | -0.04 kcal/mol
45 | ATGTCCACGTGGTGTA | -0.1 kcal/mol
46 | ATTGTCACGTGCGTTC | 0.15 kcal/mol
47 | GGGGTCACGTGGTAAC | 0.13 kcal/mol
48 | TGTGACACGTGGCGTT | -0.16 kcal/mol
49 | TGCGTCACGTGAAGGT | 0.08 kcal/mol
50 | TTATTCACGTGCTTAT | 0.14 kcal/mol

Row | Sequence | relative binding free energy
51 | CGGTGCACGTGGGGAT | -0.13 kcal/mol
52 | GGTGCCACGTGTTTTA | 0.04 kcal/mol
53 | GGTAGCACGTGACGGT | 0.03 kcal/mol
54 | GTTTTCACGTGGTGAA | 0.4 kcal/mol
55 | GTTCGCACGTGGGCAG | -0.17 kcal/mol
56 | TTAGTCACGTGTATGG | 0.15 kcal/mol
57 | TGGAGCACGTGCCGGA | -0.03 kcal/mol
58 | CATAGCACGTGTTAGG | -0.13 kcal/mol
59 | GATAGCACGTGTTAGG | 0.08 kcal/mol
60 | GATGGCACGTGTAGTA | 0.13 kcal/mol
61 | AGTAACACGTGTAATA | 0.16 kcal/mol
62 | GGAGACACGTGGGGAT | -0.08 kcal/mol
63 | ATATCCACGTGGGTGG | -0.23 kcal/mol
64 | CGTTGCACGTGGCTTT | -0.04 kcal/mol
65 | ATTTTCACGTGCGTAA | 0.11 kcal/mol
66 | TTTCTCACGTGGGTAG | 0.13 kcal/mol
67 | AGTTACACGTGATGTA | 0.2 kcal/mol
68 | TGGAGCACGTGACGTA | 0.16 kcal/mol
69 | ATCATCACGTGAGGTA | 0.35 kcal/mol
70 | AAAGGCACGTGGAGAG | 0.01 kcal/mol
71 | AGTTTCACGTGGCAGA | 0.27 kcal/mol
72 | AATCTCACGTGTGTTT | 0.24 kcal/mol
73 | AGGTACACGTGTATAA | 0.12 kcal/mol
74 | GATTTCACGTGGGGCC | 0.28 kcal/mol
75 | TGTAACACGTGGCGGC | 0.08 kcal/mol

Row | Sequence | relative binding free energy
76 | CTGATCACGTGTTGTT | 0.1 kcal/mol
77 | TAGGTCACGTGTTTAG | 0.15 kcal/mol
78 | AGGGGCACGTGGCGAT | -0.13 kcal/mol
79 | AGGGGCACGTGATGCT | -0.2 kcal/mol
80 | AATCTCACGTGAAGTG | 0.38 kcal/mol
81 | ATTAGCACGTGATTAA | -0.01 kcal/mol
82 | TCAGGCACGTGTTTGA | -0.04 kcal/mol
83 | GTTAACACGTGAATTG | 0.37 kcal/mol
84 | GCGTTCACGTGTAGGT | 0.19 kcal/mol
85 | GGATGCACGTGGGTCA | -0.09 kcal/mol
86 | GTACTCACGTGAGGGG | 0.27 kcal/mol
87 | TTCAACACGTGGTTTT | 0.01 kcal/mol
88 | TGGTCCACGTGTGAAG | 0.11 kcal/mol
89 | TTGGTCACGTGAAGGG | 0.36 kcal/mol
90 | GAGGGCACGTGGAGTA | -0.02 kcal/mol
91 | TGGCACACGTGTTGGA | -0.02 kcal/mol
92 | ACTCGCACGTGGGTTG | -0.06 kcal/mol
93 | TGCGACACGTGGGGAA | -0.04 kcal/mol
94 | GTGCACACGTGGGGGG | -0.07 kcal/mol
95 | GGTTGCACGTGTGTAC | 0.11 kcal/mol
96 | GTATTCACGTGGAATG | 0.29 kcal/mol
97 | ATCTTCACGTGAATTA | 0.5 kcal/mol
98 | GGTGTCACGTGCGGGT | 0.02 kcal/mol
99 | TCTTTCACGTGGTTTA | 0.24 kcal/mol
100 | AAGATCACGTGTTGAG | 0.23 kcal/mol

Row | Sequence | relative binding free energy
101 | CGTCACACGTGTGTTT | 0.12 kcal/mol
102 | TAGTCCACGTGTTGGT | 0.03 kcal/mol
103 | TAAGGCACGTGTGGCT | -0.03 kcal/mol
104 | TAGGGCACGTGTATTA | -0.06 kcal/mol
105 | TATTTCACGTGGATAG | 0.22 kcal/mol
106 | TGATTCACGTGTGCTA | 0.33 kcal/mol
107 | TGTGTCACGTGACGAG | 0.24 kcal/mol
108 | GAGGGCACGTGTTAAG | 0.04 kcal/mol
109 | CTGGGCACGTGCGCGG | -0.31 kcal/mol
110 | CAGCGCACGTGTGGGA | -0.01 kcal/mol
111 | AAGGGCACGTGCCGTG | -0.11 kcal/mol
112 | TCAGTCACGTGACTTG | 0.42 kcal/mol
113 | TTGGGCACGTGATGCC | -0.06 kcal/mol
114 | GGTGACACGTGAGTAT | 0.35 kcal/mol
115 | AAGATCACGTGTGGAT | 0.27 kcal/mol
116 | AGTGTCACGTGTTTAG | 0.09 kcal/mol
117 | TTTACCACGTGTAGGG | 0.11 kcal/mol
118 | TTCTTCACGTGGTGAA | 0.12 kcal/mol
119 | TGTGTCACGTGTGCTT | 0.1 kcal/mol
120 | TAAATCACGTGAGGGC | 0.46 kcal/mol
121 | ATTGACACGTGCGGGT | -0.06 kcal/mol
122 | AATTGCACGTGCGGTA | -0.01 kcal/mol
123 | ATAGGCACGTGTCGGG | -0.17 kcal/mol
124 | GTAGTCACGTGGATCT | 0.21 kcal/mol
125 | AAGTCCACGTGGGTAG | -0.11 kcal/mol

Row | Sequence | relative binding free energy
126 | ACGTTCACGTGGGGCT | 0.2 kcal/mol
127 | TCGGTCACGTGTAGGC | 0.15 kcal/mol
128 | AGGTACACGTGAGGCA | 0.26 kcal/mol
129 | GAAGTCACGTGTATGG | 0.27 kcal/mol
130 | TGTACCACGTGGGTTT | -0.1 kcal/mol
131 | TGCAACACGTGTTGGT | -0.04 kcal/mol
132 | GTAAGCACGTGGGTAG | -0.21 kcal/mol
133 | TTTGTCACGTGCGTGC | 0.06 kcal/mol
134 | ATTTTCACGTGTTACT | 0.17 kcal/mol
135 | CTTGTCACGTGGGGAA | 0.05 kcal/mol
136 | GCGGTCACGTGGGCGT | 0.03 kcal/mol
137 | TTAGACACGTGTAAAG | 0.26 kcal/mol
138 | TATGACACGTGTTCGT | -0.06 kcal/mol
139 | CTTGGCACGTGCGGGT | -0.21 kcal/mol
140 | AGTTACACGTGACTGG | 0.16 kcal/mol
141 | GATTACACGTGGAGTT | 0.16 kcal/mol
142 | GGAAGCACGTGATGGG | 0.1 kcal/mol
143 | TGATTCACGTGGCGTT | 0.35 kcal/mol
144 | GGGCGCACGTGGTAAG | -0.06 kcal/mol
145 | AGGAACACGTGGGGAT | -0.09 kcal/mol
146 | AGGACCACGTGGTGGT | -0.15 kcal/mol
